According to ChEMBL document CHEMBL4190388, “Discovery and Optimization of Indolyl-Containing 4-Hydroxy-2-Pyridone Type II DNA Topoisomerase Inhibitors Active against Multidrug Resistant Gram-negative Bacteria” (J Med Chem, 2018):

system: Escherichia coli; details: BAS849

SMILES	MIC
CCc1c(-c2ccc(N(C)C)cc2)[nH]c(=O)c(C(=O)O)c1O	0.03 µg/mL (≈ 0.0992 µM)
CCc1c(-c2ccc3c(c2)cc(CN2CCCC2)n3C)[nH]c(=O)c(C(=O)O)c1O	0.05 µg/mL (≈ 0.126 µM)
Cc1c(-c2ccc3c(c2)cc(CN(C)C)n3C)[nH]c(=O)c(C(=O)O)c1O	0.39 µg/mL (≈ 1.1 µM)
CCNCc1cc2cc3c(cc2n1C)CCCCc1c-3[nH]c(=O)c(C(=O)O)c1O	0.19 µg/mL (≈ 0.48 µM)
CN(C)Cc1cc2cc(-c3cc(O)c(C(=O)O)c(=O)[nH]3)ccc2n1C	> 12.5 µg/mL
CNCc1cc2cc3c(cc2n1C)CCCc1c-3[nH]c(=O)c(C(=O)O)c1O	0.19 µg/mL (≈ 0.517 µM)
CCc1c(-c2ccc3c(ccn3C)c2)[nH]c(=O)c(C(=O)O)c1O	0.03 µg/mL (≈ 0.0961 µM)
CCNCc1cc2cc3c(cc2n1C)Cc1c-3[nH]c(=O)c(C(=O)O)c1O	> 12.5 µg/mL
CN(C)Cc1cc2cc(-c3[nH]c(=O)c(C(=O)O)c(O)c3C3CC3)ccc2n1C	3.1 µg/mL (≈ 8.13 µM)
CC(C)c1c(-c2ccc3c(c2)cc(CN(C)C)n3C)[nH]c(=O)c(C(=O)O)c1O	0.24 µg/mL (≈ 0.626 µM)
CCc1c(-c2ccc3c(c2)cc(CNC(C)(C)C)n3C)[nH]c(=O)c(C(=O)O)c1O	0.13 µg/mL (≈ 0.327 µM)
CCc1c(-c2ccc3c(c2)cc(C)n3C)[nH]c(=O)c(C(=O)O)c1O	0.03 µg/mL (≈ 0.0919 µM)
CCNCc1cc2cc(-c3[nH]c(=O)c(C(=O)O)c(O)c3CC)ccc2n1C	0.1 µg/mL (≈ 0.271 µM)
CCc1c(-c2ccc3c(c2)cc(CNC)n3C)[nH]c(=O)c(C(=O)O)c1O	0.13 µg/mL (≈ 0.366 µM)
CCc1c(-c2ccc3c(c2)cc(CN2CCC2)n3C)[nH]c(=O)c(C(=O)O)c1O	0.05 µg/mL (≈ 0.131 µM)
CCc1c(-c2ccc3c(c2)cc(CN(C)C)n3C)[nH]c(=O)c(C(=O)O)c1O	0.06 µg/mL (≈ 0.162 µM)
CNCc1cc2c3c(ccc2n1C)-c1[nH]c(=O)c(C(=O)O)c(O)c1CCC3	6.3 µg/mL (≈ 17.1 µM)
CCNCc1cc2c3c(ccc2n1C)-c1[nH]c(=O)c(C(=O)O)c(O)c1CCC3	6.3 µg/mL (≈ 16.5 µM)
CCc1c(-c2ccc3c(c2)c(C)c(C)n3C)[nH]c(=O)c(C(=O)O)c1O	> 12.5 µg/mL
CCNCc1cc2cc3c(cc2n1C)CCCc1c-3[nH]c(=O)c(C(=O)O)c1O	0.1 µg/mL (≈ 0.262 µM)
CCc1c(-c2ccc3c(c2)cc(CNC(C)C)n3C)[nH]c(=O)c(C(=O)O)c1O	0.06 µg/mL (≈ 0.156 µM)

≈ marks a conversion by molar mass, not a printed value.
